# Assay results published in PubChem BioAssay (EPA / NIEHS).
# For some of these results: This list holds what a sample rich in hits left over. Only a part is listed here, and it is no random draw. Inconclusive results are not listed. The source made the active and inactive calls. The calls were made as follows, unless noted: active = hit-call score of the fitted dose curve at least 0.9, where 1 is the maximum; inactive = score below 0.9.
# What was measured:
# [1] = molecular target: human Peroxisome Proliferator-activated Receptor alpha (PPARa), PPARA (gene 5465) (UniProt Q07869); assay: ATG_PPARa_TRANS: Attagene TRANS-FACTORIAL HepG2 Assay for human Peroxisome Proliferator-activated Receptor alpha (PPARa) (AID 2283001; active = hit-call score of the fitted dose curve at least 0.9, where 1 is the maximum)
# Sequence of UniProt Q07869 (Q07869 whole entry, looked up): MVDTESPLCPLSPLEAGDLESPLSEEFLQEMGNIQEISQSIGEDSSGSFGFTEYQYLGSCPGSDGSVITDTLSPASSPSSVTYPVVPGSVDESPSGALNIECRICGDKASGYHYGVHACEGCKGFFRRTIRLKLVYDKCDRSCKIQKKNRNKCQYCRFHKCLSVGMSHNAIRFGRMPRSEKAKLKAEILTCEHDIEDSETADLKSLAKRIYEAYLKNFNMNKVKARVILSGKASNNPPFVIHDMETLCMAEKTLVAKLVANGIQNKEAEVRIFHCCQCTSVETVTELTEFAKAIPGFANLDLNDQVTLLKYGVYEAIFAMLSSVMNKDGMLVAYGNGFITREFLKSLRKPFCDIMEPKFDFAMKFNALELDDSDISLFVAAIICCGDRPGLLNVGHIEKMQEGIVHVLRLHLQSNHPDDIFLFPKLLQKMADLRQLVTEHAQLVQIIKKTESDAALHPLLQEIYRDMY
# Method in brief: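 Cells (HepG2) are transfected with multiple reporter transcription units, exposed to chemical for 24 h, then total RNA is reverse-transcribed and amplified. Labelled products are quantified by capillary electrophoresis; induction is referenced to DMSO.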
# [2] = molecular target: human Retinoic Acid Receptor beta (RARb), RARB (gene 5915) (UniProt P10826); assay: ATG_RARb_TRANS: Attagene TRANS-FACTORIAL HepG2 Assay for human Retinoic Acid Receptor beta (AID 2283004; active = hit-call score of the fitted dose curve at least 0.9, where 1 is the maximum)
# Sequence of UniProt P10826 (P10826 whole entry, looked up, the tested form may be a part): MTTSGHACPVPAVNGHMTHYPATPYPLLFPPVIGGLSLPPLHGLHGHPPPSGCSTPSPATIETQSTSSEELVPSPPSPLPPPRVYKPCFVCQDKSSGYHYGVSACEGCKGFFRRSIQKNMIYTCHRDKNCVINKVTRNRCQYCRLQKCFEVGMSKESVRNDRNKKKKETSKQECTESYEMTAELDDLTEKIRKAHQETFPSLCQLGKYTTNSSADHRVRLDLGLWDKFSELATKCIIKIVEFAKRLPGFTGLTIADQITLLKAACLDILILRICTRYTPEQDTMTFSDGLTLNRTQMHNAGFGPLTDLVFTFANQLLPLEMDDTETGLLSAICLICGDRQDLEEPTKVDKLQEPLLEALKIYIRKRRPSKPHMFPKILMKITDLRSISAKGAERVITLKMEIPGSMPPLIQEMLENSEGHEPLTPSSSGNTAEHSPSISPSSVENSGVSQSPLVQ
# Method in brief: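 HepG2, transient MRTU transfection, NR–Gal4 chimera, 24 h treatment; RT-PCR plus CE fluorescence detection of reporter mRNA; gain of signal vs DMSO.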
# [3] = molecular target: Peroxisome proliferator-activated receptor gamma (Homo sapiens) (UniProt P37231); assay: ATG_PPARg_TRANS: Attagene TRANS-FACTORIAL HepG2 Assay for human Peroxisome Proliferator-activated Receptor-gamma (PPARg) (AID 2283007; active = hit-call score of the fitted dose curve at least 0.9, where 1 is the maximum)
# Sequence of UniProt P37231 (P37231 whole entry, looked up): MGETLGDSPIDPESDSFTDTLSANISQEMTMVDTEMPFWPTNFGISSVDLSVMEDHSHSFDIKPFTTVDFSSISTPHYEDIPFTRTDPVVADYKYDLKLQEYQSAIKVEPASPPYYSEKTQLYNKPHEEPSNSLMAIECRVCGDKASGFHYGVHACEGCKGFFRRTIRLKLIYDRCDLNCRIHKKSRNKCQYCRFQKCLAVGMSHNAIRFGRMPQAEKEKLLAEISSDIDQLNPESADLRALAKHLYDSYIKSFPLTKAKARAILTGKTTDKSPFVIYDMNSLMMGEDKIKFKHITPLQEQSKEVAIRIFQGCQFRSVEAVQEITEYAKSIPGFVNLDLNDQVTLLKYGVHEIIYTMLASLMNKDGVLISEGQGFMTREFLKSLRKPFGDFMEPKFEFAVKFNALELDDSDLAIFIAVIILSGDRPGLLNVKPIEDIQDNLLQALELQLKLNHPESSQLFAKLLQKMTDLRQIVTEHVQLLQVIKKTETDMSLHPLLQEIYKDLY
# Method in brief: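 Twenty-four hours after chemical dosing of transiently transfected HepG2 cells, isolated RNA was converted to cDNA, reporter sequences amplified and 6-FAM-labelled, then HpaI-digested and analysed by capillary electrophoresis. Signal increase against DMSO was fitted.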
# [4] = read-out: C-C motif chemokine 2 (Homo sapiens) (UniProt P13500); assay: BSK_KF3CT_MCP1: BioMAP Diversity Plus: KF3CT Assay for Monocyte Chemoattractant Protein 1 (MCP1/CCL2) Biomarker Activity (AID 2283073); details: actives raise or lower the signal; primary human keratinocytes with fibroblasts
# Method in brief: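 Keratinocytes and foreskin fibroblasts were co-cultured, dosed with chemical, and sampled 24 h later. MCP-1 was quantified by ELISA, and the endpoint was analyzed with bidirectional fitting using DMSO as negative control.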
# [5] = Tanguay_ZF_120hpf_PE_legacy: (Legacy) Oregon State University Tanguay Lab 120 Hour Post-fertilization zebrafish Assay for Pericardial Edema (AID 2283640; active = hit-call score of the fitted dose curve at least 0.9, where 1 is the maximum)
# [6] = BSK_3C_Proliferation: Cell Proliferation Assessment in the BioMAP Diversity Plus: 3C Assay (AID 2283006); details: primary human endothelial cells (HUVEC);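 also: potency may reflect either rise or fall in cell number versus DMSO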
# Method in brief: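 Cells (human umbilical vein endothelial, sub-confluent) receive test chemical; after 48 h they are fixed in 10% trichloroacetic acid, stained with 0.1% SRB and read at 560 nm. Activity is referenced to DMSO, fitting increases and decreases.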
# [7] = read-out: Monocyte Chemoattractant Protein-1 (MCP1), CCL2 (gene 6347); assay: BSK_3C_MCP1: BioMAP Diversity Plus: 3C Assay for Monocyte Chemoattractant Protein-1 (MCP1) Biomarker Activity (AID 2283017); details: actives raise or lower the signal; primary human endothelial cells (HUVEC)
# Method in brief: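 Endothelial cells from human umbilical vein are dosed with chemical, cultured 24 h, then assayed for MCP-1 by ELISA; both increases and decreases are modelled against DMSO controls.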
# [8] = BSK_LPS_SRB: Viability Assessment in the BioMAP Diversity Plus: LPS Assay (AID 2283079); details: primary human HUVEC with PBMC;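 also: total protein by sulforhodamine B absorbance as a cytotoxicity measure; measured one day after compound addition; fitted in both directions against DMSO so loss or gain of signal counts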
# Method in brief: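 Overt cytotoxicity was gauged by sulforhodamine B total-protein staining in a primary human vascular endothelial and mononuclear cell co-culture 24 h post-dosing. Activity was fitted in both directions relative to DMSO.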
# [9] = read-out: Macrophage colony-stimulating factor (MCSF), CSF1 (gene 1435); assay: BSK_LPS_MCSF: BioMAP Diversity Plus: LPS Assay for Macrophage colony-stimulating factor (MCSF) Biomarker Activity (AID 2283083); details: actives raise or lower the signal; primary human HUVEC with PBMC
# Method in brief: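 Compound is added to a human vascular primary co-culture of umbilical vein endothelium and blood mononuclear cells. After 24 h, M-CSF is quantified by ELISA. Signal changes are fitted in both directions against DMSO.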
# [10] = read-out: 3-Hydroxy-3-Methylglutaryl-CoA Synthase 2 (HMGCS2), HMGCS2 (gene 3158); assay: LTEA_HepaRG_HMGCS2: Life Technologies and Expression Analysis (LTEA) Assay for 3-Hydroxy-3-Methylglutaryl-CoA Synthase 2 (HMGCS2) using HepaRG (AID 2283504); details: actives raise or lower the signal; mRNA level, 48 h
# Method in brief: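 Expression of HMGCS2 in human HepaRG liver cells is measured by qRT-PCR 48 h after dosing (highest 100 uM, half-log series, 0.5% DMSO). Values come from bidirectional concentration-response fitting with DMSO as baseline.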
# [11] = read-out: Pyruvate Dehydrogenase Kinase 4 (PDK4), PDK4 (gene 5166); assay: LTEA_HepaRG_PDK4: Life Technologies and Expression Analysis (LTEA) Assay for Pyruvate Dehydrogenase Kinase 4 (PDK4) using HepaRG (AID 2283525); details: actives raise or lower the signal; mRNA level, 48 h
# Method in brief: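 Eight-point, half-log concentration series (max 100 uM, 0.5% DMSO) applied to differentiated HepaRG cells for 48 h in duplicate. Endpoint: PDK4 mRNA induction or repression by qRT-PCR against DMSO baseline.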
# [12] = ACEA_ER_AUC_viability: ACEA Biosciences xCELLigence Real-Time Cell Analysis on Estrogen Receptor Agonism for Viability (AID 2283782; active = hit-call score of the fitted dose curve at least 0.9, where 1 is the maximum;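 also: hit means loss of impedance signal meaning reduced cell growth or viability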)
# Method in brief: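 Continuous-exposure impedance cell analysis uses T-47D cells in charcoal-stripped serum, eight 1:4 dilutions topping at 100 uM final, biological duplicate. Area under the growth curve at 80 h is fitted against DMSO baseline.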
# [13] = CCTE_Shafer_MEA_dev_network_spike_duration_std: CCTE's Neural Network Formation Assay for Standard Deviation of Network Spike Duration, Shafer Lab (AID 2284052);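 also: area under curve of spike duration SD across recording days 5 to 12; hits are decreases in network spike duration SD versus DMSO vehicle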
# Method in brief: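 Developing networks of rat cortical neurons were exposed over twelve days in vitro on 48-well MEA plates. Trapezoidal AUC of recordings (DIV 5–12) was analysed for signal loss relative to DMSO vehicle.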
# [14] = molecular target: human Peroxisome Proliferator-activated Receptor delta (PPARd), PPARD (gene 5467) (UniProt Q03181); assay: ATG_PPARd_TRANS: Attagene TRANS-FACTORIAL HepG2 Assay for human Peroxisome Proliferator-activated Receptor delta (PPARd) (AID 2283002; active = hit-call score of the fitted dose curve at least 0.9, where 1 is the maximum)
# Sequence of UniProt Q03181 (Q03181 whole entry, looked up, the tested form may be a part): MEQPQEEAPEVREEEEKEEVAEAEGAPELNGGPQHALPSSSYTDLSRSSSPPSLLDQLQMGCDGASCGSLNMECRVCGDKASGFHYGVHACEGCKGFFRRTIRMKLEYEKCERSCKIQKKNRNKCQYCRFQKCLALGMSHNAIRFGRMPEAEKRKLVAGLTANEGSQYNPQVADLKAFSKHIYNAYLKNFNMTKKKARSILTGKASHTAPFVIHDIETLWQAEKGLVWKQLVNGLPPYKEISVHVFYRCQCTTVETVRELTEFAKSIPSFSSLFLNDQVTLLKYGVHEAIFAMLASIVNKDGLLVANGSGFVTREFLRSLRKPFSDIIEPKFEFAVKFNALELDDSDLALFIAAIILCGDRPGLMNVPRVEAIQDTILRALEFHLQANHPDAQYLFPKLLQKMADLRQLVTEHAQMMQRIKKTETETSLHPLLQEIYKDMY
# Method in brief: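 Measured quantity: GAL4-UAS reporter transcript induction in HepG2 after 24 h chemical dosing, with NR-Gal4 chimeras supplied by transient transfection. Detection by RT-PCR and capillary electrophoresis; upward fit against DMSO.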
# [15] = read-out: Vascular endothelial growth factor receptor 2 (Homo sapiens) (UniProt P35968); assay: BSK_4H_VEGFRII: BioMAP Diversity Plus: 4H Assay for Vascular endothelial growth factor receptor 2 (VEGFR2) Biomarker Activity (AID 2283031); details: actives raise or lower the signal; primary human endothelial cells (HUVEC);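 also: cell-surface VEGFR2 protein level quantified by ELISA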
# Method in brief: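 VEGFRII levels on human vascular endothelial primary cells were determined by ELISA at 24 hours post-dosing, with gain- or loss-of-signal fitted against DMSO controls.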
# [16] = BSK_CASM3C_Proliferation: Cell Proliferation Assessment in the BioMAP Diversity Plus: CASM3C Assay (AID 2283047); details: primary human coronary artery smooth muscle cells;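 also: sulforhodamine B total protein stain as relative cell number at 560 nm; sub-confluent cells exposed 48 h before staining; fitted both ways against DMSO so gain or loss of cell number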
# Sequence of C-C motif chemokine 2 (Homo sapiens) (P13500 whole entry, looked up): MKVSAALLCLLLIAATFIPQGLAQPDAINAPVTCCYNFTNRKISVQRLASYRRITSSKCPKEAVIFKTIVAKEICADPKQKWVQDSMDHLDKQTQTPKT
smiles,measurement,setting,value
O=[N+]([O-])c1c2ccccc2cc2ccccc12,outcome,[1],inactive
CC(C=O)Cc1ccc2c(c1)OCO2 (centres undefined),outcome,[2],inactive
O=S(=O)(O)C(F)(F)C(F)(F)C(F)(F)C(F)(F)C(F)(F)C(F)(F)F,AC50,[3],active: 80.3 µM
same,outcome,[4],inactive
same,outcome,[5],inactive
ClC(Cl)=C(c1ccc(Cl)cc1)c1ccc(Cl)cc1,AC50,[6],active: 27.6 µM
same,AC50,[7],active: 34.9 µM
same,AC50,[8],active: 35.2 µM
same,AC50,[9],active: 30.7 µM
same,outcome,[10],inactive
same,outcome,[11],inactive
same,AC50,[12],active: 28.4 µM
same,AC50,[13],active: 3.82 µM
Cc1cc(C2CC2)nc(Nc2ccccc2)n1,outcome,[2],inactive
N#Cc1ccccn1,outcome,[1],inactive
C(=NC1CCCCC1)=NC1CCCCC1,outcome,[14],inactive
same,AC50,[7],active: 25.2 µM
same,AC50,[15],active: 5.31 µM
same,AC50,[16],active: 25.6 µM
